Here are results for 22 molecules from article PMC12040169 (PLOS Biology, 2025).

This is one part of the list.

The subject of this assay is T1, C. trachomatis L2/434/Bu expressing GFP (CTL2-GFP).
T1 construct: L2/434/Bu GFP intracellular growth in HeLa cells
The arrangement: species or system HeLa; C. trachomatis total inclusion area by high-content imaging, normalised to DMSO. To be noted: total inclusion area; 28.5 h, 10 µM; inhibitor. Put shortly: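 High-content imaging followed the bulk GFP/resorufin measurement: fixed, Hoechst-stained cells were scored for GFP inclusions and host nuclei per well. Total inclusion area and count served as growth proxies, nuclei number as the viability proxy. MIC calculation matched the bulk assay.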
Take `COc1ccc(-c2ccccc2NC(=O)c2ccc(Cn3cnnn3)cc2)cc1` [CBK285866]: the “% of control remaining” value was determined as 103.74.

As for `Cc1ccc2sc(NC(=O)c3ccc(Cl)s3)nc2c1C` [CBK291144], the “% of control remaining” value worked out at 102.332.

Take `COc1ccc(/C=N/Nc2nc(OC)nc(N3CCOCC3)n2)cc1` [CBK025751]: the “% of control remaining” value was determined as 103.262.

In the case of `NC(=O)c1cc2c(OCCCN3CCN(C(c4ccccc4)c4ccccc4)CC3)cccc2[nH]1` [CBK016544], the “% of control remaining” value turned out to be 134.319.

Take `Oc1nc2ccc(Oc3ccc4nc(O)c(O)nc4c3)cc2nc1O` [CBK293978]: the “% of control remaining” value is on record as 114.937.

Regarding `CN(C)Cc1nc2c([nH]1)c(=O)n(C)c(=O)n2C` [CBK140662], the “% of control remaining” value is listed as 48.0359.

Turning to `Cc1ccc(SCC(=O)Nc2cc([N+](=O)[O-])ccc2O)cc1` [CBK268655], the “% of control remaining” value turned out to be 67.0626.

For the molecule `CS(=O)(=O)Nc1ncc(-c2ccco2)cc1C(=O)NCc1nc2ccccc2[nH]1` [CBK076468], the “% of control remaining” value is listed as 73.4736.

For `Cc1cc2c(s1)c1cnn(CC(=O)NC(C)(C)C)c(=O)c1n2C` [CBK284158], the “% of control remaining” value was 65.7485.

Regarding `COc1ccc([C@@]23CCCN(C(=O)Nc4ccc(SC(F)(F)F)cc4)C[C@@H]2N(C)CC3)cc1OC` [CBK056681T], the “% of control remaining” value worked out at 77.3626.

Consider `COC(=O)c1ccsc1NS(=O)(=O)c1cc(Br)ccc1OC` [CBK039065], for which the “% of control remaining” value came to 65.2241.

For the molecule `CC(C)NC(=O)[C@H]1CN2CCC1C[C@@H]2Cn1cc(-c2cccc(O)c2)nn1` (stereo partly shown) [CBK288731], the “% of control remaining” value is on record as 103.807.

In the case of `CCCCCOc1ccc(C2NC(=O)NC2=O)cc1` (stereo not shown) [CBK287865], the “% of control remaining” value came to 113.441.

Consider `CN(C)S(=O)(=O)NCc1ccc2c(c1)OCO2` [CBK264364], for which the “% of control remaining” value came out at 113.59.

Take `FC(F)(F)c1cccc(Sc2ccc(Cl)c(Cl)c2)n1` [CBK089608]: the “% of control remaining” value came out at 104.884.

Turning to `CCN1CCN(c2ccc(NC(=O)c3cccc(OCc4ccccc4)c3)cc2)CC1` [CBK266471], the “% of control remaining” value is recorded as 127.712.

On to `CCC(O)CNC(=O)c1coc(COc2ccc3sc(C)nc3c2)n1` (stereo not shown) [CBK307700], for which the “% of control remaining” value was found to be 68.6965.

In the case of `Cc1cn2c(=O)c3ncn([C@H]4C[C@@H](O)[C@@H](CO)O4)c3nc2[nH]1` [CBK201320], the “% of control remaining” value is given as 104.775.

Turning to `Cc1ccccc1OC(C)C(=O)Nc1nnc[nH]1` (stereo not shown) [CBK268605], the “% of control remaining” value is recorded as 86.6951.

Regarding `COc1c(C)[nH]cc(CN(C)CCC(=O)Nc2cccc(F)c2)c1=O` [CBK304201], the “% of control remaining” value turned out to be 57.7727.

For `O=C(O)/C=C/c1cccc(-c2cncc(N3CCN(Cc4ccccn4)CC3)n2)c1` [CBK066085], the “% of control remaining” value was 112.93.

As for `CN(C)CCNC(=O)c1cccc(-c2cnc(N)c(N3CCN(C)CC3)n2)c1` [CBK063393], the “% of control remaining” value is 72.3398.
